In article PMC6042963:
Results are given in words; binding and its absence hold for the method and conditions named. Binding seen in cells or lysates may run through a third protein. Some entries that bind do so weakly or less than the wild type. Sequences can lack the tags named with a protein.

Amino acid sequences for entries named in this document (tags omitted).
UniProt Q8VEK2: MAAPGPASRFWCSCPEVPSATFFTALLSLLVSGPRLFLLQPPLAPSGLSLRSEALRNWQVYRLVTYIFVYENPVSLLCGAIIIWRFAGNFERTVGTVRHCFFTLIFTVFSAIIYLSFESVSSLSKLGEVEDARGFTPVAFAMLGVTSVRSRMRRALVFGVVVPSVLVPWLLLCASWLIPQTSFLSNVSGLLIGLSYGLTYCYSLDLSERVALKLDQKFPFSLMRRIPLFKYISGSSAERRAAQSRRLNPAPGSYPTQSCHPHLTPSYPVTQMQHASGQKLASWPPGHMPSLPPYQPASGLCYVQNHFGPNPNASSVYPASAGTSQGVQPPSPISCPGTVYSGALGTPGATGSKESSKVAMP

T1: HA-tagged mouse Ubac2 (mouse) (UniProt Q8R1K1)
T1 sequence: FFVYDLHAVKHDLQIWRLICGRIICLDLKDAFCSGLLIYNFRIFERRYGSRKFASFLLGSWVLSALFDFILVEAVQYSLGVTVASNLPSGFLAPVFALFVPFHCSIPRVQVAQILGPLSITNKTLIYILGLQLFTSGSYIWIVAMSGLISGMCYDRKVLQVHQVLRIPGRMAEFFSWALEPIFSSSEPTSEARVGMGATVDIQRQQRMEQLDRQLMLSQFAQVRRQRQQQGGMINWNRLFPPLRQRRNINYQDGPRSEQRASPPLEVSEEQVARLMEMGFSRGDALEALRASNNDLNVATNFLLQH

T2: HA-tagged full-length mouse iRhom2 (mouse) (UniProt Q80WQ6)
T2 sequence: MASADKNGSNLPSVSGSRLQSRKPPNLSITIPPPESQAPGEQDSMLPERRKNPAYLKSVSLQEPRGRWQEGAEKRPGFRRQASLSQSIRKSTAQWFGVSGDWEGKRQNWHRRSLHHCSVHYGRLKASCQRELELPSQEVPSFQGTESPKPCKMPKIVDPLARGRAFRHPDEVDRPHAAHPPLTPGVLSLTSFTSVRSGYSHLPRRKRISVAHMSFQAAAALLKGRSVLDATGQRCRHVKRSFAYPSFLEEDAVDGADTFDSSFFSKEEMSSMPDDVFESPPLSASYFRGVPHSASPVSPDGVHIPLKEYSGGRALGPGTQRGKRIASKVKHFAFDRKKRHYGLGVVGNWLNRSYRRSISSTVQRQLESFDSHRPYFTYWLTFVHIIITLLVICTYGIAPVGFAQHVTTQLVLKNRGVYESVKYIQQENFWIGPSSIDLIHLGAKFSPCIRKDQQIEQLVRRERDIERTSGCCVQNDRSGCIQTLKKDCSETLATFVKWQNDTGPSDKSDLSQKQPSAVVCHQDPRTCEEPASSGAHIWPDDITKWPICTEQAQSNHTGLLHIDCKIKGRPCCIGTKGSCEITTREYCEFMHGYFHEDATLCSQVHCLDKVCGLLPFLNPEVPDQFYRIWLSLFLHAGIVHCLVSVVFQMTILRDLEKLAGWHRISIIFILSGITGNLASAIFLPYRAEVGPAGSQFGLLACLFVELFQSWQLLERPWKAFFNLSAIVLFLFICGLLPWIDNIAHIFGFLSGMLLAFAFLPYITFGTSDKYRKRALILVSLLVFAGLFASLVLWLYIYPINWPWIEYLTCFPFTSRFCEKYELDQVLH

T3: HA-tagged full-length human iRhom1 (human) (UniProt Q96CC6)
T3 sequence: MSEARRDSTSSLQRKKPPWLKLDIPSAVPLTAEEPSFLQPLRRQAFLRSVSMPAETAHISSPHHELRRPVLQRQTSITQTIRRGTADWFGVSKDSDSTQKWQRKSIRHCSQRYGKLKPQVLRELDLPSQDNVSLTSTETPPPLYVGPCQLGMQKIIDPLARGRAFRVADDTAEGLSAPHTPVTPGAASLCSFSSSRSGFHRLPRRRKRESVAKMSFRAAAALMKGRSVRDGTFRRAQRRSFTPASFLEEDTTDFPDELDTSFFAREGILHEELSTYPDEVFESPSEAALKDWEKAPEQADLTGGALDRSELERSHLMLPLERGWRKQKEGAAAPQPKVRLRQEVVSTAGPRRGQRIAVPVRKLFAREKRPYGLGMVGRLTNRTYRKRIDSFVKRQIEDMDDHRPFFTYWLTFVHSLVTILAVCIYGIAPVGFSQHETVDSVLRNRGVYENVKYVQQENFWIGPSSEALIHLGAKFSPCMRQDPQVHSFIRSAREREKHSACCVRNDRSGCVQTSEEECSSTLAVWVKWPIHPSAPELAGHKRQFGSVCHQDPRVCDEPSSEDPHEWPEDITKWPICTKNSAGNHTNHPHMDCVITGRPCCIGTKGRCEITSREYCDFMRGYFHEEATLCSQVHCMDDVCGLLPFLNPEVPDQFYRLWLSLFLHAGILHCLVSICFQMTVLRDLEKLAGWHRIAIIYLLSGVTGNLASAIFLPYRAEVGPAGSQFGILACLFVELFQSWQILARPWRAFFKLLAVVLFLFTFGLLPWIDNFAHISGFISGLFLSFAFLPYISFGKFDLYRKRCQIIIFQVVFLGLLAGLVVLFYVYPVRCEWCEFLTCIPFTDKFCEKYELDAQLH

T4: HA-tagged cytoplasmic N-terminus of human iRhom1 (amino acids 1-404) (human) (UniProt Q96CC6)
T4 sequence: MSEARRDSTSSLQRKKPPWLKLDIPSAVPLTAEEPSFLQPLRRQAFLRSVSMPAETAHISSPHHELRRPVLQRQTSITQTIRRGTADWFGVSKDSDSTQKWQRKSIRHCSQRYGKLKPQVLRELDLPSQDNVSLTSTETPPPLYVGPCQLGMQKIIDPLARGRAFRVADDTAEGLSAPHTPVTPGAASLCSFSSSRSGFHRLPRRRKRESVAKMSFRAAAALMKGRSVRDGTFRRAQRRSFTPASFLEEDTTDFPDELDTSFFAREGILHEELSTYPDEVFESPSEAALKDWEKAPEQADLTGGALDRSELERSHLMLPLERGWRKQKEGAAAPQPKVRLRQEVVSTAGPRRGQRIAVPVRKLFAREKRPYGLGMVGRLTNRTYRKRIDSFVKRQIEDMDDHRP

T5: human iTAP-FLAG (human) (UniProt Q9BZ67)
T5 sequence: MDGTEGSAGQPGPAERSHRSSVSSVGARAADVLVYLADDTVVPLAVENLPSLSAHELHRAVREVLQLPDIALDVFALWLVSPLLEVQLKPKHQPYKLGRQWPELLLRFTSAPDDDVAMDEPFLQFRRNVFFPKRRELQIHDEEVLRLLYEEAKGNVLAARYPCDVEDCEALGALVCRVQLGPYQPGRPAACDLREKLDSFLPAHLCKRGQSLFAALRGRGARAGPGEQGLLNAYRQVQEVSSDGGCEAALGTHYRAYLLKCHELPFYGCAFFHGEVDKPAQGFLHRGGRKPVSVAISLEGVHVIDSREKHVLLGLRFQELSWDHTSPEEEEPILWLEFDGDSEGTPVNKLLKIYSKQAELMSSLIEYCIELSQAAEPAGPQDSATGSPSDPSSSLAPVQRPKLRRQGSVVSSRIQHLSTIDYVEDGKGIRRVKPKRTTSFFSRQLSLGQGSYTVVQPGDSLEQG


Key:
[1] = biological target: T1, HA-tagged mouse Ubac2 (mouse); assay: co-IP; HEK 293ET transfected with iTAP-FLAG and HA-tagged proteins; 1% Triton X-100, 150 mM NaCl, 50 mM Tris-HCl pH 7.4 lysis; anti-HA magnetic beads; washes with 300 mM NaCl at 4°C; FLAG western blot
[2] = biological target: T2, HA-tagged full-length mouse iRhom2 (mouse); assay: as above
[3] = biological target: T3, HA-tagged full-length human iRhom1 (human); assay: as above
[4] = biological target: T4, HA-tagged cytoplasmic N-terminus of human iRhom1 (amino acids 1-404) (human); assay: as above
[5] = biological target: HA-tagged mouse Rhbdd2 (mouse) (UniProt Q8VEK2); assay: as above
[6] = biological target: T5, human iTAP-FLAG (human); assay: co-IP; HEK 293ET stably expressing iRhom2-HA, transiently transfected with iTAP-FLAG; cells ± thiol-reducible cross-linker DSP; anti-FLAG immunoprecipitation; DTT to reverse cross-links; Endo-H or PNGase F deglycosylation; HA blot

| binding [1] | binding [2] | binding [3] | binding [4] | binding [5] | binding [6] | Binder |
| --- | --- | --- | --- | --- | --- | --- |
| no binding | binds | binds | binds | no binding | – | human iTAP-FLAG (protein, UniProt Q9BZ67 1-464) MDGTEGSAGQPGPAERSHRSSVSSVGARAADVLVYLADDTVVPLAVENLPSLSAHELHRAVREVLQLPDIALDVFALWLVSPLLEVQLKPKHQPYKLGRQWPELLLRFTSAPDDDVAMDEPFLQFRRNVFFPKRRELQIHDEEVLRLLYEEAKGNVLAARYPCDVEDCEALGALVCRVQLGPYQPGRPAACDLREKLDSFLPAHLCKRGQSLFAALRGRGARAGPGEQGLLNAYRQVQEVSSDGGCEAALGTHYRAYLLKCHELPFYGCAFFHGEVDKPAQGFLHRGGRKPVSVAISLEGVHVIDSREKHVLLGLRFQELSWDHTSPEEEEPILWLEFDGDSEGTPVNKLLKIYSKQAELMSSLIEYCIELSQAAEPAGPQDSATGSPSDPSSSLAPVQRPKLRRQGSVVSSRIQHLSTIDYVEDGKGIRRVKPKRTTSFFSRQLSLGQGSYTVVQPGDSLEQG |
| – | – | – | – | – | binds | HA-tagged full-length mouse iRhom2 (protein, UniProt Q80WQ6 1-827) MASADKNGSNLPSVSGSRLQSRKPPNLSITIPPPESQAPGEQDSMLPERRKNPAYLKSVSLQEPRGRWQEGAEKRPGFRRQASLSQSIRKSTAQWFGVSGDWEGKRQNWHRRSLHHCSVHYGRLKASCQRELELPSQEVPSFQGTESPKPCKMPKIVDPLARGRAFRHPDEVDRPHAAHPPLTPGVLSLTSFTSVRSGYSHLPRRKRISVAHMSFQAAAALLKGRSVLDATGQRCRHVKRSFAYPSFLEEDAVDGADTFDSSFFSKEEMSSMPDDVFESPPLSASYFRGVPHSASPVSPDGVHIPLKEYSGGRALGPGTQRGKRIASKVKHFAFDRKKRHYGLGVVGNWLNRSYRRSISSTVQRQLESFDSHRPYFTYWLTFVHIIITLLVICTYGIAPVGFAQHVTTQLVLKNRGVYESVKYIQQENFWIGPSSIDLIHLGAKFSPCIRKDQQIEQLVRRERDIERTSGCCVQNDRSGCIQTLKKDCSETLATFVKWQNDTGPSDKSDLSQKQPSAVVCHQDPRTCEEPASSGAHIWPDDITKWPICTEQAQSNHTGLLHIDCKIKGRPCCIGTKGSCEITTREYCEFMHGYFHEDATLCSQVHCLDKVCGLLPFLNPEVPDQFYRIWLSLFLHAGIVHCLVSVVFQMTILRDLEKLAGWHRISIIFILSGITGNLASAIFLPYRAEVGPAGSQFGLLACLFVELFQSWQLLERPWKAFFNLSAIVLFLFICGLLPWIDNIAHIFGFLSGMLLAFAFLPYITFGTSDKYRKRALILVSLLVFAGLFASLVLWLYIYPINWPWIEYLTCFPFTSRFCEKYELDQVLH |
